The text below walks through data of ChEMBL document CHEMBL4888484, “Replenishing the malaria drug discovery pipeline: Screening and hit evaluation of the MMV Hit Generation Library 1 (HGL1) against asexual blood stage Plasmodium falciparum ,using a nano luciferase reporter read-out” (2022).

Among all 150,000 compounds or so, about 540 (0.36%) showed an effect of 50% or more. This is one part of the list.

For the test, the system named is Plasmodium falciparum. Nature of the test: Primary screen in NF54 nanoGlo assay, in single point, at 2uM, 72h; a lower Z score goes with more inhibition. To be noted: timepoint 72 hour. The class given is functional, Erythrocyte.
On to `COc1ccc2nc(N3CC(C(=O)NCCc4cccs4)C3)sc2c1`, for which the “% Inhibition” value is reported as -3% and the Z score came out at 0.42.
Consider `Cc1ccc(Cl)cc1N1CCN(C(=O)c2cc3c(C)nc4ccccc4c3o2)CC1`, for which the “% Inhibition” value is reported as -7% and the Z score turned out to be 1.02.
Consider `Cc1ccc(CNC(=O)c2ccc3c(c2)CNCCO3)cc1`, for which the “% Inhibition” value amounted to 11% and the Z score is recorded as -2.
Take `O=C(c1cc(-c2ccccc2Cl)nc2ccccc12)N1CCN(c2ncccn2)CC1`: the “% Inhibition” value is given as -3% and the Z score came to 0.44.
In the case of `CC(=O)NC(C)(C)C(N)=NOCc1c(C)cc(C)cc1C`, the “% Inhibition” value is given as -13% and the Z score stood at 1.71.
As to `Cc1nccc(NC(=O)N2Cc3cc(Br)ccc3C[C@@H]2C)n1`, the “% Inhibition” value came to 25% and the Z score is listed as -3.16.
For `Cc1ccc(C(=O)NCc2ccco2)n1C` the same measures were -14% and 1.81.
Consider `COc1cc(C)c(-c2c(-c3ccccc3)ncn2Cc2ncc[nH]2)cc1C`, for which the “% Inhibition” value was -2% and the Z score amounted to 0.27.
For `CN(Cc1ncc[nH]1)C(=O)c1coc(CN2CCc3ccccc3C2)n1` the same measures were 15% and -1.92.
Regarding `CCCNC(=O)CS(=O)(=O)Cc1cccc(Br)c1C`, the “% Inhibition” value came to 40% and the Z score is -5.73.
For `Cc1nn(CC(=O)N[C@H](c2cnn(C)c2)C(C)(C)C)c2ncccc12`, the “% Inhibition” value was -14% and the Z score was determined as 2.25.
In the case of `COc1ccc(-c2ccc(C)cc2-n2cccn2)nn1`, the “% Inhibition” value was -16% and the Z score was determined as 1.93.
As for `Cc1c(CN(C)CCN(C)C2CCCC2)cnn1C`, the “% Inhibition” value is given as -25% and the Z score came out at 2.18.
As for `CCOC(=O)c1[nH]c(C2CCN(Cc3nocc3C)CC2)nc1C`, the “% Inhibition” value is recorded as -15% and the Z score stood at 2.3.
Turning to `COc1ccc(N2CCN(C(=O)CN3C(=O)CCn4nc(C)cc43)CC2)cc1`, the “% Inhibition” value was -11% and the Z score came out at 1.1.
With `Cc1cnc(C(=O)N2CCC[C@H]2c2ccsc2)cn1`, the “% Inhibition” value was -5% and the Z score stood at 0.49.
Regarding `Cc1c(C(=O)N(C2CC2)[C@@H](C)C(=O)O)cccc1-c1ccccn1`, the “% Inhibition” value is listed as -3% and the Z score came out at 0.37.
`COc1ccc2c(c1F)CC[C@@H]2NCc1ccc(CCN)cc1`: the “% Inhibition” value is on record as 10% and the Z score is recorded as -0.91.
For `COC1(c2nc(CCn3ccc4ccccc43)no2)CCC(C(F)F)CC1` (configuration not stated) the same measures were -10% and 1.17.
`O=C(NCc1ccccc1)N1CC[C@H](c2ccsc2)C1`: the “% Inhibition” value is listed as -21% and the Z score is 2.46.
Turning to `Cc1nc(CN2CCC[C@H](Cn3cncn3)C2)oc1C`, the “% Inhibition” value was -7% and the Z score is 1.04.
On to `O=C(Nc1ccc(N2CCN(C(=O)c3cccc(F)c3)CC2)nc1)C1CCCCC1`, for which the “% Inhibition” value worked out at 2% and the Z score is reported as -0.25.
As for `CN(C(=O)c1cc(C(C)(C)C)on1)[C@@H]1COC[C@H]1O`, the “% Inhibition” value is -8% and the Z score came to 1.49.
On to `O=C(Nc1nccn(-c2ccc(Br)cc2)c1=O)c1ccccn1`, for which the “% Inhibition” value stood at 1% and the Z score is -0.15.
Turning to `CC[C@@H](CC#N)NC(=O)CC1(CNC(=O)OC(C)(C)C)CC1`, the “% Inhibition” value is on record as -11% and the Z score came out at 1.16.
`CC[C@H](C)NC(=O)CN1CN(c2ccccc2)C2(CCN(C(=O)Nc3cccc(Cl)c3Cl)CC2)C1=O`: the “% Inhibition” value was -10% and the Z score was found to be 1.84.
For `COc1ccc(S(=O)(=O)NC[C@@](O)(c2ccccc2)C2CCOCC2)cc1C(N)=O`, in that order: -7% and 1.3.
For `O=C(COC(=O)c1ccccc1-c1nc2ccccc2s1)NCc1ccc2c(c1)OCO2`, in that order: -10% and 1.45.
As for `O=c1cc2c(nn1CC1CCN(c3ccc4nnc(C(F)(F)F)n4n3)CC1)CCC2`, the “% Inhibition” value is listed as -7% and the Z score turned out to be 0.99.
Turning to `C[C@]1(CO)CCCN(c2ncc(S(=O)(=O)NCCO)cc2C(F)(F)F)C1`, the “% Inhibition” value is given as -5% and the Z score is listed as 0.93.
In the case of `CCc1onc(C)c1NC(=O)[C@H]1CCc2[nH]nc(C(F)(F)F)c2C1`, the “% Inhibition” value is listed as -10% and the Z score is 1.21.
For `Cc1cc(NC(=O)CN(C)[C@H]2CCCN(Cc3noc(C)n3)C2)on1`, the “% Inhibition” value is reported as -9% and the Z score is given as 0.98.
For `O=C(Cc1cccc(F)c1)N1C[C@H]2CC[C@@H](C1)N(Cc1ccccc1)C2=O`, the “% Inhibition” value was -6% and the Z score amounted to 0.72.
For `CCc1ccc(CS(=O)(=O)N2CCC[C@H](c3nc(C)cs3)C2)cc1`, the “% Inhibition” value is listed as 12% and the Z score is on record as -1.39.
As to `COC(=O)C(C)(C)NCC(=O)N[C@@H](C)C1CC1`, the “% Inhibition” value was -9% and the Z score turned out to be 1.15.
Turning to `CCCn1nccc1S(=O)(=O)N(C)C[C@H]1CCN(C)C1`, the “% Inhibition” value was -7% and the Z score was 1.09.
For `Cn1cncc1CN1CCOc2ccccc2[C@@H]1C(=O)O`, the “% Inhibition” value is -6% and the Z score is 0.87.
Take `O=C(c1ccc(COc2cc(Cl)ccc2Cl)o1)N1CCCCCC1`: the “% Inhibition” value is -11% and the Z score came out at 1.77.
On to `COCCn1cc(NC(=O)c2nc(C)n(-c3ccccc3Cl)n2)ccc1=O`, for which the “% Inhibition” value is -4% and the Z score worked out at 0.52.
With `COC(=O)c1ccc(CN2CC[C@@H](N3CCC(Cc4ccccc4)CC3)CCC2=O)cc1`, the “% Inhibition” value was -7% and the Z score was 1.31.
With `O=C(c1ccc2nccnc2c1)N1CCn2c(cnc2C(F)(F)F)C1`, the “% Inhibition” value came to 7% and the Z score was -0.97.
For `Cc1ncc(CNC(=O)Nc2cnn(CC(C)C)c2)s1` the same measures were -4% and 0.56.
Turning to `CC[C@H](C)Oc1c(Br)cc(C#N)cc1OC`, the “% Inhibition” value was 7% and the Z score was -0.83.
As to `CC(C)Cn1ccnc1NC(=O)c1ccnn1C`, the “% Inhibition” value is -13% and the Z score came to 1.79.
As to `C[C@H](NC(=O)c1ccc2ccccc2n1)c1ccncc1`, the “% Inhibition” value turned out to be 7% and the Z score is -0.93.
On to `Cc1ccc2nc(-c3cncnc3)cc(C(=O)N(C)C3CCCCCC3)c2c1`, for which the “% Inhibition” value was determined as 10% and the Z score is reported as -1.41.
`CC(C)c1nc(C2CCCCCN2C(=O)C2C(C(=O)O)C2(C)C)no1` (configuration not stated): the “% Inhibition” value was -17% and the Z score was 1.55.
For `CCOCCC(=O)NCc1ccc(-c2ncon2)cc1` the same measures were -10% and 1.23.
For `O=C(CN1CCCC2CCCCC21)N1CCCC(c2nc3ccccc3s2)C1` (configuration not stated), the “% Inhibition” value was found to be 17% and the Z score was -2.
In the case of `CN(C)C(=O)C1(CNC(=O)NCc2nccs2)CCCC1`, the “% Inhibition” value was -3% and the Z score is recorded as 0.44.
For `CN(CC1(N2CCOCC2)CCCCC1)c1ccncn1`, in that order: 3% and -0.4.
Turning to `Cc1ccc(S(=O)(=O)CC(=O)c2ccc[nH]2)c(C)c1`, the “% Inhibition” value came to 25% and the Z score is on record as -2.87.
Take `CN1CCc2c(c3ccccc3n2CCC(N)=O)C1`: the “% Inhibition” value was -10% and the Z score was 0.96.
For `O=C(NCC1CC1)[C@]1(F)CCCN(Cc2ccoc2)C1` the same measures were -17% and 1.46.
As to `Cc1ccc(C(=O)N2CCC3(CCC(=O)N(CC4CC4)C3)CC2)c(C)c1`, the “% Inhibition” value was -17% and the Z score came to 1.58.
As to `CCOCC(=O)N1CCCN(C)c2ccc(F)cc21`, the “% Inhibition” value is -5% and the Z score turned out to be 0.75.
Turning to `Cc1cc(-n2c(C)cc(C(=O)Nc3ccccc3Oc3ccccc3)c2C)no1`, the “% Inhibition” value is given as -8% and the Z score amounted to 1.57.
With `CC1CCN(C(=O)OC(C)(C)C)C(C)C1NC(=O)CCc1nc(C2CCCC2)no1` (configuration not stated), the “% Inhibition” value is -5% and the Z score is on record as 1.
Consider `CN(C)c1ccc(/C=C\c2ccnc3c(N)cccc23)cc1`, for which the “% Inhibition” value was -26% and the Z score worked out at 3.09.
As to `Cc1cc2ncc(NC(=O)Cc3ccc(F)cc3)cn2n1`, the “% Inhibition” value is -9% and the Z score worked out at 1.38.
Take `COCCN1C[C@]2(CCCN(c3cc(OC)ncn3)C2)CCC1=O`: the “% Inhibition” value is listed as 1% and the Z score is recorded as -0.21.
For `Cc1sc(C(=O)N2CCCC2)c2ncnc(NCc3ccc(F)cc3Cl)c12`, in that order: -2% and 0.34.
Regarding `CCc1cc(NC(=O)NC[C@H]2C[C@@H]2C(F)(F)F)no1`, the “% Inhibition” value was 4% and the Z score is recorded as -0.68.
For the molecule `Cn1cc(CNc2ccc(-c3nncn3C)cn2)cn1`, the “% Inhibition” value was determined as 18% and the Z score was -2.4.
On to `C[C@H](NC(=O)c1coc(S(=O)(=O)N(C)C)c1)c1ccccn1`, for which the “% Inhibition” value is listed as -6% and the Z score stood at 0.75.
Consider `CC(C)Nc1nc(-c2cccc(Cl)c2)c2c(N)n(-c3ccccc3Cl)nc2n1`, for which the “% Inhibition” value amounted to 9% and the Z score was -1.14.
For `O=C(CS(=O)(=O)Cc1ccccc1)Nc1nc(-c2ccc(Cl)cc2)cs1`, in that order: -7% and 1.33.
As for `O=C(Nc1ccc(OC(F)(F)F)cc1)[C@@H](F)C(F)(F)F`, the “% Inhibition” value is -18% and the Z score is listed as 3.36.
With `CC(C)CN1CC2(CCN(C(=O)Cn3cnnn3)CC2)CC1=O`, the “% Inhibition” value was -2% and the Z score is 0.45.
Consider `COc1cc(-c2ccccc2)ccc1CNc1ccc(C(N)=O)c(C)c1`, for which the “% Inhibition” value is reported as -15% and the Z score amounted to 2.41.
For `CN1CCN([C@H]2CN(Cc3cc(C(C)(C)C)[nH]n3)C[C@@H]2O)CC1`, in that order: -10% and 2.07.
Turning to `COc1ccc(CNC(=O)C(=O)Nc2[nH]ncc2C#N)cc1OC`, the “% Inhibition” value was -2% and the Z score is on record as 0.25.
As for `COc1ccc(Cl)cc1CNCCN(C)C`, the “% Inhibition” value is -7% and the Z score turned out to be 0.59.
Regarding `COc1ccc(NC(=O)[C@@H]2COCC(=O)N2Cc2cccs2)cc1`, the “% Inhibition” value is reported as -1% and the Z score turned out to be 0.06.
Take `COc1ccc(NC(=O)c2ccc(NC(=O)CCc3cccnc3)cc2)cc1`: the “% Inhibition” value is on record as -18% and the Z score was determined as 2.94.
With `O=C1C(=O)N(CN2CCCCC2)c2cc3c(cc21)OCCO3`, the “% Inhibition” value is recorded as -3% and the Z score was found to be 0.4.
As for `CCS(=O)(=O)N1CCCC(C(=O)NC2CCCC23OCCO3)C1` (configuration not stated), the “% Inhibition” value is recorded as -3% and the Z score is on record as 0.35.
As to `Cc1ccsc1CNC(=O)N1CCOC[C@@H]1C`, the “% Inhibition” value was 35% and the Z score was -3.92.
Take `O=C(NC1CCC(c2ccc(F)cc2)CC1)c1ccnnc1` (configuration not stated): the “% Inhibition” value was -7% and the Z score is recorded as 1.35.
For `CCn1nc(C)c(CN[C@H]2CCCc3c2cnn3-c2ccc(C(C)(C)C)cc2)c1C` the same measures were 16% and -2.39.
Consider `CCC[C@H]1C=CCN1C(=O)c1coc(COc2ccc(C)cc2OC)n1`, for which the “% Inhibition” value was determined as 1% and the Z score is -0.14.
With `CC(=O)NC1CCCN(CC(C)CC(C)C)C1` (configuration not stated), the “% Inhibition” value is given as -13% and the Z score was 1.41.
`Cc1cnccc1CCNCC1(S(=O)(=O)NC(C)(C)C)CC1`: the “% Inhibition” value is given as -19% and the Z score is recorded as 2.41.
Take `C[C@@H](C(=O)Nc1ccccn1)n1c(=O)n(CC2CC2)c2ccc(C(=O)O)cc21`: the “% Inhibition” value is listed as -16% and the Z score is 1.61.
In the case of `O=C(OCC1CCCCC1)N1CCN(Cc2cnccn2)CC1`, the “% Inhibition” value is listed as -10% and the Z score is 1.57.
Take `Cn1cnnc1-c1cncc(NC(=O)c2ccc(F)c(Cl)c2F)c1`: the “% Inhibition” value is recorded as -13% and the Z score was 2.52.
